# The other results are listed elsewhere or left out.
# B1: Langerin K313I (Homo sapiens), Q9UJ71 (protein)
# chain: STLNAQIPELKSDLEKASALNTKIRALQGSLENMSKLLKRQNDILQVVSQGWKYFKGNFYYFSLIPKTWYSAEQFCVSRNSHLTSVTSESEQEFLYKTAGGLIYWIGLTKAGMEGDWSWVDDTPFNKVQSARFWIPGEPNNAGNNEHCGNIKAPSLQAWNDAPCDITFLFICKRPYVPSEP
# Experiments:
# Assay in all cases: glycan array binding signal (z-score within array); higher = stronger binding
# Settings in all cases: glycan notation: IUPAC condensed, linker removed
# [1] = target: Gal(b1-3)GlcNAc(b1-6)[Gal(b1-3)]GalNAc
# Method in brief: (§1)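 Glycan array binding is given as a within-array Z-score, which can be read as non-binding when negative. The arrays, 3228 of them, came from the Consortium for Functional Glycomics database and were retained only where the protein sequence was available. Z-scores were averaged across arrays of the same protein sequence at different concentrations or buffers and across linkers.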
# [2] = target: Gal(b1-3)GlcNAc6S
# Method in brief: as §1
# [3] = target: Gal(b1-3)[Fuc(a1-4)]GlcNAc
# Method in brief: as §1
# [4] = target: Gal(b1-3)[Fuc(a1-4)]GlcNAc(b1-2)Man
# Method in brief: as §1
# [5] = target: Gal(b1-3)[Fuc(a1-4)]GlcNAc(b1-2)Man(a1-3)[Gal(b1-3)[Fuc(a1-4)]GlcNAc(b1-2)Man(a1-6)]Man(b1-4)GlcNAc(b1-4)[Fuc(a1-6)]GlcNAc
# Method in brief: as §1
# [6] = target: Gal(b1-3)[Fuc(a1-4)]GlcNAc(b1-3)Gal(b1-3)[Fuc(a1-4)]GlcNAc
# Method in brief: as §1
# [7] = target: Gal(b1-3)[Fuc(a1-4)]GlcNAc(b1-3)Gal(b1-4)[Fuc(a1-3)]GlcNAc
# Method in brief: as §1
# [8] = target: Gal(b1-3)[Fuc(a1-4)]GlcNAc(b1-6)GalNAc
# Method in brief: as §1
# [9] = target: Gal(b1-3)[GlcNAc(b1-6)]GalNAc
# Method in brief: as §1
# [10] = target: Gal(b1-3)[Neu5Ac(a2-6)]GalNAc
# Method in brief: as §1
# [11] = target: Gal(b1-3)[Neu5Ac(a2-6)]GlcNAc(b1-4)Gal(b1-4)Glc
# Method in brief: as §1
# [12] = target: Gal(b1-3)[Neu5Ac(b2-6)]GalNAc
# Method in brief: as §1
# [13] = target: Gal(b1-4)Gal
# Method in brief: as §1
# [14] = target: Gal(b1-4)GalNAc(a1-3)[Fuc(a1-2)]Gal(b1-4)GlcNAc
# Method in brief: as §1
# [15] = target: Gal(b1-4)GalNAc(b1-3)[Fuc(a1-2)]Gal(b1-4)GlcNAc
# Method in brief: as §1
# [16] = target: Gal(b1-4)Glc
# Method in brief: as §1
# [17] = target: Gal(b1-4)Glc6S
# Method in brief: as §1
# [18] = target: Gal(b1-4)GlcNAc
# Method in brief: as §1
# [19] = target: Gal(b1-4)GlcNAc(a1-6)Gal(b1-4)GlcNAc
# Method in brief: as §1
# [20] = target: Gal(b1-4)GlcNAc(b1-2)Man
# Method in brief: as §1
# [21] = target: Gal(b1-4)GlcNAc(b1-2)Man(a1-3)Man(b1-4)GlcNAc(b1-4)GlcNAc
# Method in brief: as §1
# [22] = target: Gal(b1-4)GlcNAc(b1-2)Man(a1-3)[Gal(b1-4)GlcNAc(b1-2)Man(a1-6)]Man(b1-4)GlcNAc(b1-4)GlcNAc
# Method in brief: as §1
# [23] = target: Gal(b1-4)GlcNAc(b1-2)Man(a1-3)[Gal(b1-4)GlcNAc(b1-2)Man(a1-6)]Man(b1-4)GlcNAc(b1-4)[Fuc(a1-6)]GlcNAc
# Method in brief: as §1
# [24] = target: Gal(b1-4)GlcNAc(b1-2)Man(a1-3)[Gal(b1-4)GlcNAc(b1-2)Man(a1-6)][Gal(b1-4)GlcNAc(b1-4)]Man(b1-4)GlcNAc(b1-4)[Fuc(a1-6)]GlcNAc
# Method in brief: as §1
# [25] = target: Gal(b1-4)GlcNAc(b1-2)Man(a1-3)[Gal(b1-4)GlcNAc(b1-2)Man(a1-6)][GlcNAc(b1-4)]Man(b1-4)GlcNAc(b1-4)[Fuc(a1-6)]GlcNAc
# Method in brief: as §1
# [26] = target: Gal(b1-4)GlcNAc(b1-2)Man(a1-3)[GlcNAc(b1-2)Man(a1-6)]Man(b1-4)GlcNAc(b1-4)GlcNAc
# Method in brief: as §1
# [27] = target: Gal(b1-4)GlcNAc(b1-2)Man(a1-3)[GlcNAc(b1-4)][Gal(b1-4)GlcNAc(b1-2)Man(a1-6)]Man(b1-4)GlcNAc(b1-4)GlcNAc
# Method in brief: as §1
# [28] = target: Gal(b1-4)GlcNAc(b1-2)Man(a1-3)[Man(a1-6)]Man(b1-4)GlcNAc(b1-4)GlcNAc
# Method in brief: as §1
# [29] = target: Gal(b1-4)GlcNAc(b1-2)Man(a1-6)Man(b1-4)GlcNAc(b1-4)GlcNAc
# Method in brief: as §1
# [30] = target: Gal(b1-4)GlcNAc(b1-2)Man(a1-6)[GlcNAc(b1-2)Man(a1-3)]Man(b1-4)GlcNAc(b1-4)GlcNAc
# Method in brief: as §1
# [31] = target: Gal(b1-4)GlcNAc(b1-2)Man(a1-6)[Man(a1-3)]Man(b1-4)GlcNAc(b1-4)GlcNAc
# Method in brief: as §1
# [32] = target: Gal(b1-4)GlcNAc(b1-2)[Gal(b1-4)GlcNAc(b1-4)]Man(a1-3)[Gal(b1-4)GlcNAc(b1-2)Man(a1-6)]Man(b1-4)GlcNAc(b1-4)GlcNAc
# Method in brief: as §1
# [33] = target: Gal(b1-4)GlcNAc(b1-2)[Gal(b1-4)GlcNAc(b1-4)]Man(a1-3)[Gal(b1-4)GlcNAc(b1-2)[Gal(b1-4)GlcNAc(b1-6)]Man(a1-6)]Man(b1-4)GlcNAc(b1-4)GlcNAc
# Method in brief: as §1
# [34] = target: Gal(b1-4)GlcNAc(b1-2)[Gal(b1-4)GlcNAc(b1-4)]Man(a1-3)[GlcNAc(b1-4)][Gal(b1-4)GlcNAc(b1-2)Man(a1-6)]Man(b1-4)GlcNAc(b1-4)GlcNAc
# Method in brief: as §1
# [35] = target: Gal(b1-4)GlcNAc(b1-2)[Gal(b1-4)GlcNAc(b1-4)]Man(a1-3)[GlcNAc(b1-4)][Gal(b1-4)GlcNAc(b1-2)[Gal(b1-4)GlcNAc(b1-6)]Man(a1-6)]Man(b1-4)GlcNAc(b1-4)GlcNAc
# Method in brief: as §1
# [36] = target: Gal(b1-4)GlcNAc(b1-2)[Gal(b1-4)GlcNAc(b1-6)]Man(a1-6)[Gal(b1-4)GlcNAc(b1-2)Man(a1-3)]Man(b1-4)GlcNAc(b1-4)GlcNAc
# Method in brief: as §1
# [37] = target: Gal(b1-4)GlcNAc(b1-2)[Gal(b1-4)GlcNAc(b1-6)]Man(a1-6)[Gal(b1-4)GlcNAc(b1-2)Man(a1-3)]Man(b1-4)GlcNAc(b1-4)[Fuc(a1-6)]GlcNAc
# Method in brief: as §1
# [38] = target: Gal(b1-4)GlcNAc(b1-2)[Gal(b1-4)GlcNAc(b1-6)]Man(a1-6)[GlcNAc(b1-4)][Gal(b1-4)GlcNAc(b1-2)Man(a1-3)]Man(b1-4)GlcNAc(b1-4)GlcNAc
# Method in brief: as §1
# [39] = target: Gal(b1-4)GlcNAc(b1-2)[Gal(b1-4)GlcNAc(b1-6)]Man(a1-6)[GlcNAc(b1-4)][Gal(b1-4)GlcNAc(b1-2)[Gal(b1-4)GlcNAc(b1-4)]Man(a1-3)]Man(b1-4)GlcNAc(b1-4)[Fuc(a1-6)]GlcNAc
# Method in brief: as §1
# [40] = target: Gal(b1-4)GlcNAc(b1-3)Gal(b1-3)GalNAc
# Method in brief: as §1
# [41] = target: Gal(b1-4)GlcNAc(b1-3)Gal(b1-3)GlcNAc
# Method in brief: as §1
# [42] = target: Gal(b1-4)GlcNAc(b1-3)Gal(b1-4)Glc
# Method in brief: as §1
# [43] = target: Gal(b1-4)GlcNAc(b1-3)Gal(b1-4)GlcNAc
# Method in brief: as §1
# [44] = target: Gal(b1-4)GlcNAc(b1-3)Gal(b1-4)GlcNAc(b1-2)Man(a1-3)[Gal(b1-4)GlcNAc(b1-3)Gal(b1-4)GlcNAc(b1-2)Man(a1-6)]Man(b1-4)GlcNAc(b1-4)GlcNAc
# Method in brief: as §1
# [45] = target: Gal(b1-4)GlcNAc(b1-3)Gal(b1-4)GlcNAc(b1-2)Man(a1-3)[Gal(b1-4)GlcNAc(b1-3)Gal(b1-4)GlcNAc(b1-2)Man(a1-6)]Man(b1-4)GlcNAc(b1-4)[Fuc(a1-6)]GlcNAc
# Method in brief: as §1
binder,measurement,setting,value
B1,glycan array binding signal (z-score),[1],-0.253
same,glycan array binding signal (z-score),[2],-0.395
same,glycan array binding signal (z-score),[3],-0.306
same,glycan array binding signal (z-score),[4],-0.217
same,glycan array binding signal (z-score),[5],0.9
same,glycan array binding signal (z-score),[6],0.067
same,glycan array binding signal (z-score),[7],-0.255
same,glycan array binding signal (z-score),[8],0.164
same,glycan array binding signal (z-score),[9],-0.146
same,glycan array binding signal (z-score),[10],-0.229
same,glycan array binding signal (z-score),[11],-0.356
same,glycan array binding signal (z-score),[12],-0.358
same,glycan array binding signal (z-score),[13],-0.047
same,glycan array binding signal (z-score),[14],-0.387
same,glycan array binding signal (z-score),[15],-0.382
same,glycan array binding signal (z-score),[16],-0.178
same,glycan array binding signal (z-score),[17],-0.162
same,glycan array binding signal (z-score),[18],-0.346
same,glycan array binding signal (z-score),[19],-0.396
same,glycan array binding signal (z-score),[20],-0.209
same,glycan array binding signal (z-score),[21],-0.272
same,glycan array binding signal (z-score),[22],-0.339
same,glycan array binding signal (z-score),[23],0.133
same,glycan array binding signal (z-score),[24],-0.254
same,glycan array binding signal (z-score),[25],-0.323
same,glycan array binding signal (z-score),[26],-0.348
same,glycan array binding signal (z-score),[27],-0.331
same,glycan array binding signal (z-score),[28],-0.258
same,glycan array binding signal (z-score),[29],-0.235
same,glycan array binding signal (z-score),[30],-0.258
same,glycan array binding signal (z-score),[31],-0.237
same,glycan array binding signal (z-score),[32],-0.316
same,glycan array binding signal (z-score),[33],-0.384
same,glycan array binding signal (z-score),[34],-0.319
same,glycan array binding signal (z-score),[35],-0.299
same,glycan array binding signal (z-score),[36],-0.311
same,glycan array binding signal (z-score),[37],0.18
same,glycan array binding signal (z-score),[38],-0.369
same,glycan array binding signal (z-score),[39],-0.325
same,glycan array binding signal (z-score),[40],-0.361
same,glycan array binding signal (z-score),[41],-0.35
same,glycan array binding signal (z-score),[42],-0.335
same,glycan array binding signal (z-score),[43],-0.394
same,glycan array binding signal (z-score),[44],0.326
same,glycan array binding signal (z-score),[45],0.267

# — the supplement of paper PMC8728848
